Data as given in paper PMC6736995, “Insights Into Enhanced Complement Activation by Structures of Properdin and Its Complex With the C-Terminal Domain of C3b” (Frontiers in Immunology, 2019).

Assays:
Conditions in all cases: both partners purified
[1] = target: T1, C3b, biotinylated at the free cysteine of the hydrolysed thioester (human, UniProt P01024 23-667; P01024 partial chain, biotin (EZ-Link Maleimide-PEG2-Biotin) on the free cysteine that is generated after hydrolysis of the reactive thioester); assay: SPR; apparent KD; biotinylated C3b on a SensEye P-Strep chip; oligomeric properdin injected 1.2 × 10^-4 to 1 μM; 20 mM HEPES pH 7.4, 0.005% Tween-20, 150 mM NaCl; 25°C; Salp20 to regenerate
T1 construct: complement C3 beta chain, human; C3b alpha' chain, human; Coupled to a streptavidin chip through the biotin; also called C3b coated chip; source: generated from C3 (purified from human plasma) with FB and FD, biotinylated, purified by SEC

[2] = target: T2, C3 pro-convertase C3bB^dgf‡ generated on a C3b coated chip (human, UniProt P01024 23-667; P01024 partial chain; P00751 26-764, S699A | D279G | N285D, biotin (EZ-Link Maleimide-PEG2-Biotin) on the free cysteine that is generated after hydrolysis of the reactive thioester); assay: SPR; apparent KD; C3bB^dgf‡ or C3bBb^dgf‡ generated on a C3b coated chip; oligomeric properdin injected 6.1 × 10^-5 to 0.5 μM; 20 mM HEPES pH 7.4, 0.005% Tween-20, 150 mM NaCl, 5 mM MgCl2; 25°C
T2 construct: complement C3 beta chain, human; C3b alpha' chain, human; source: formed on the SPR chip: 100 nM FB^dgf‡ injected for 5 min over biotinylated C3b, 5 mM MgCl2; copies: + +

[3] = target: T3, C3 convertase C3bBb^dgf‡ (human, UniProt P01024 23-667; P01024 partial chain; P00751 260-764, S699A | D279G | N285D, biotin (EZ-Link Maleimide-PEG2-Biotin) on the free cysteine that is generated after hydrolysis of the reactive thioester); assay: as above
T3 construct: complement C3 beta chain, human; C3b alpha' chain, human; In the convertase stability assay (functional rows) the same complex was formed in solution from C3b that was not biotinylated; source: formed on the SPR chip: FB^dgf‡ (100 nM, 5 min) then FD (100 nM, 5 min) over biotinylated C3b, 5 mM MgCl2; copies: + +

Kd [1]: 22 ± 2 nM
Kd [2]: 4.6 ± 1 nM
Kd [3]: 4.4 ± 1 nM
B1: recombinant full-length properdin (mixture of dimers, trimers and tetramers) (natural protein, human)
chain: GSDPVLCFTQYEESSGKCKGLLGGGVSVEDCCLNTAFAYQKRSGGLCQPCRSPRWSLWSTWAPCSVTCSEGSQLRYRRCVGWNGQCSGKVAPGTLEWQLQACEDQQCCPEMGGWSGWGPWEPCSVTCSKGTRTRRRACNHPAPKCGGHCPGQAQESEACDTQQVCPTHGAWATWGPWTPCSASCHGGPHEPKETRSRKCSAPEPSQKPPGKPCPGLAYEQRRCTGLPPCPVAGGWGPWGPVSPCPVTCGLGQTMEQRTCNHPVPQHGGPFCAGDATRTHICNTAVPCPVDGEWDSWGEWSPCIRRNMKSISCQEIPGQQSRGRTCRGRKFDGHRCAGQQQDIRHCYSIQHCPLKGSWSEWSTWGLCMPPCGPNPTRARQRLCTPLLPKYPPTVSMVEGQGEKNVTFWGRPLPRCEELQGQKLVVEEKRPCLHVPACKDPEEEELAAA
notes: N-terminal Gly-Ser cloning scar from the BamHI site; properdin, human, full-length properdin (res. 28-469); C-terminal extension of three alanines from the NotI site; Mixture of dimeric, trimeric and tetrameric properdin by SEC; also called oligomeric properdin; properdin oligomers; source: HEK293-EBNA, purified from supernatant (Ni-Sepharose Excel, SEC Superdex 200), pooled fractions
